Test results as given in the supplement of paper PMC5895741.

B1: MS2 coat protein; the commonest letter at each place (parent)
chain: MASNFTQFVLVDNGGTGDVTVAPSNFANGVAEWISSNSRSQAYKVTCSVRQSSAQNRKYTIKVEVPKVATQTVGGVELPVAAWRSYLNMELTIPIFATNSDCELIVKAMQGLLKDGNPIPSAIAANSGIY
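Also: counts from Illumina MiSeq reads, cDNA of packaged RNA versus plasmid DNA taken before selection, each replicate independent from library construction onward, expression induced with 0.1% arabinose.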

Variants of: B1
Test: apparent fitness score (VLP assembly selection enrichment vs plasmid library) (log10 ratio); higher = better expression / assembly into well-formed VLPs
Experimental: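 SyMAPS: NNK codon saturation mutagenesis of every codon of the MS2 bacteriophage coat protein (EMPIRIC cloning), expressed overnight in E. coli DH10B at 37 °C. Assembled VLPs were selected by ammonium sulfate precipitation plus FPLC size-exclusion chromatography, and the encapsidated RNA was sequenced. Apparent fitness score = log10 of the mean over 3 biological replicates of (percent abundance in the VLP library / percent abundance in the plasmid library). Variants absent after selection were set to 0.0001, i.e. -4.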
With V80L the “apparent fitness score (log10)” value was < -4. In the case of Y86K, the “apparent fitness score (log10)” value is reported as -0.215. With Y86W the “apparent fitness score (log10)” value was -0.722. In the case of E64K, the “apparent fitness score (log10)” value is reported as 0.273. For E64W, the “apparent fitness score (log10)” value was < -4. In the case of R84Q, the “apparent fitness score (log10)” value is reported as -1.28. For R84K, the “apparent fitness score (log10)” value was 0.44. For C102N, the “apparent fitness score (log10)” value was < -4. For C102Q, the “apparent fitness score (log10)” value was < -4. In the case of C102V, the “apparent fitness score (log10)” value is reported as -0.571. For C102D, the “apparent fitness score (log10)” value was < -4. For G128D, the “apparent fitness score (log10)” value was < -4. With G128N the “apparent fitness score (log10)” value was < -4. With V106E the “apparent fitness score (log10)” value was < -4. For V106A, the “apparent fitness score (log10)” value was < -4. With F8R the “apparent fitness score (log10)” value was -0.889. For F8S, the “apparent fitness score (log10)” value was -0.556. With F8A the “apparent fitness score (log10)” value was -1.66. For E77P, the “apparent fitness score (log10)” value was 0.492. In the case of E77F, the “apparent fitness score (log10)” value is reported as 0.138. In the case of I105W, the “apparent fitness score (log10)” value is reported as < -4. With I105S the “apparent fitness score (log10)” value was < -4. For D12H, the “apparent fitness score (log10)” value was < -4. With S85K the “apparent fitness score (log10)” value was < -4. With S85R the “apparent fitness score (log10)” value was -1.47. With S85H the “apparent fitness score (log10)” value was < -4. In the case of A82R, the “apparent fitness score (log10)” value is reported as -1.74. In the case of A82F, the “apparent fitness score (log10)” value is reported as < -4. For A82C, the “apparent fitness score (log10)” value was -1.3. For A82P, the “apparent fitness score (log10)” value was -0.482. For A82K, the “apparent fitness score (log10)” value was < -4. For S38K, the “apparent fitness score (log10)” value was -0.811. With S38I the “apparent fitness score (log10)” value was < -4. In the case of S38E, the “apparent fitness score (log10)” value is reported as < -4. For S38F, the “apparent fitness score (log10)” value was < -4. With S38N the “apparent fitness score (log10)” value was -0.533. In the case of T6S, the “apparent fitness score (log10)” value is reported as 0.0286. With T6A the “apparent fitness score (log10)” value was 0.557. In the case of T6P, the “apparent fitness score (log10)” value is reported as -1.34. With T72Y the “apparent fitness score (log10)” value was 0.578. In the case of T16S, the “apparent fitness score (log10)” value is reported as 0.402. In the case of W83I, the “apparent fitness score (log10)” value is reported as -1.28. For W83V, the “apparent fitness score (log10)” value was -1.46. In the case of W83P, the “apparent fitness score (log10)” value is reported as < -4. In the case of T46Q, the “apparent fitness score (log10)” value is reported as -1.18. For T46E, the “apparent fitness score (log10)” value was < -4. For T46I, the “apparent fitness score (log10)” value was < -4. In the case of T46G, the “apparent fitness score (log10)” value is reported as -1.52. For V9P, the “apparent fitness score (log10)” value was -1.07. With Q71T the “apparent fitness score (log10)” value was -0.962. In the case of Q71L, the “apparent fitness score (log10)” value is reported as -0.518. In the case of Q71G, the “apparent fitness score (log10)” value is reported as 0.0155. In the case of E103W, the “apparent fitness score (log10)” value is reported as -0.568. With E103S the “apparent fitness score (log10)” value was 0.97. In the case of E103R, the “apparent fitness score (log10)” value is reported as 0.315. For W33I, the “apparent fitness score (log10)” value was < -4. For W33M, the “apparent fitness score (log10)” value was < -4. With A122E the “apparent fitness score (log10)” value was < -4. In the case of A122T, the “apparent fitness score (log10)” value is reported as < -4. In the case of A122H, the “apparent fitness score (log10)” value is reported as < -4. For A122S, the “apparent fitness score (log10)” value was -1.5. In the case of A122D, the “apparent fitness score (log10)” value is reported as < -4. With A122G the “apparent fitness score (log10)” value was -1.04. In the case of N99A, the “apparent fitness score (log10)” value is reported as -0.564. For N99W, the “apparent fitness score (log10)” value was -1.21. In the case of S121M, the “apparent fitness score (log10)” value is reported as 0.805. In the case of A125D, the “apparent fitness score (log10)” value is reported as -0.929. With A125P the “apparent fitness score (log10)” value was < -4. For G17S, the “apparent fitness score (log10)” value was 0.14. With G17Y the “apparent fitness score (log10)” value was < -4. In the case of G17K, the “apparent fitness score (log10)” value is reported as 0.0891. For G17M, the “apparent fitness score (log10)” value was 0.15. With G17P the “apparent fitness score (log10)” value was -2.31. In the case of A22G, the “apparent fitness score (log10)” value is reported as 0.257. With A22H the “apparent fitness score (log10)” value was 0.251. With A22Q the “apparent fitness score (log10)” value was 0.512. In the case of A22D, the “apparent fitness score (log10)” value is reported as -0.963. In the case of A22N, the “apparent fitness score (log10)” value is reported as 0.601. With A22S the “apparent fitness score (log10)” value was 0.125. For K107F, the “apparent fitness score (log10)” value was -0.847. With K107R the “apparent fitness score (log10)” value was 0.625. For K107V, the “apparent fitness score (log10)” value was -0.823. With K107E the “apparent fitness score (log10)” value was -0.675. For P118T, the “apparent fitness score (log10)” value was -0.0849. In the case of P118W, the “apparent fitness score (log10)” value is reported as 0.183. In the case of L78K, the “apparent fitness score (log10)” value is reported as -0.744. For L78I, the “apparent fitness score (log10)” value was -0.263. In the case of A42E, the “apparent fitness score (log10)” value is reported as -0.846. With A42L the “apparent fitness score (log10)” value was -1.03. With A42F the “apparent fitness score (log10)” value was -0.984. For P120C, the “apparent fitness score (log10)” value was -0.0255. In the case of S35V, the “apparent fitness score (log10)” value is reported as < -4. For S35R, the “apparent fitness score (log10)” value was < -4. With G75H the “apparent fitness score (log10)” value was -0.739. With E90V the “apparent fitness score (log10)” value was 1.01. In the case of E90Y, the “apparent fitness score (log10)” value is reported as 0.359. With G29P the “apparent fitness score (log10)” value was < -4. In the case of G29M, the “apparent fitness score (log10)” value is reported as < -4. In the case of G29L, the “apparent fitness score (log10)” value is reported as < -4. For G29A, the “apparent fitness score (log10)” value was -0.88. With R39F the “apparent fitness score (log10)” value was < -4. With R39D the “apparent fitness score (log10)” value was < -4. In the case of R39L, the “apparent fitness score (log10)” value is reported as -1.19. For R39S, the “apparent fitness score (log10)” value was < -4. With R39Y the “apparent fitness score (log10)” value was < -4. With A97T the “apparent fitness score (log10)” value was -0.409. With A97C the “apparent fitness score (log10)” value was -1.3. In the case of A97Y, the “apparent fitness score (log10)” value is reported as -1.32. In the case of A54E, the “apparent fitness score (log10)” value is reported as -0.831. For A54G, the “apparent fitness score (log10)” value was -1.15. For A54Q, the “apparent fitness score (log10)” value was -0.087. In the case of A108M, the “apparent fitness score (log10)” value is reported as -1.03. For A108H, the “apparent fitness score (log10)” value was < -4. In the case of A108D, the “apparent fitness score (log10)” value is reported as -0.662. For A108K, the “apparent fitness score (log10)” value was -1.03. For S36N, the “apparent fitness score (log10)” value was 0.477. With S36G the “apparent fitness score (log10)” value was 0.44. With T92G the “apparent fitness score (log10)” value was -0.957. With T92M the “apparent fitness score (log10)” value was 0.368. In the case of G74I, the “apparent fitness score (log10)” value is reported as -0.104. With F5N the “apparent fitness score (log10)” value was -0.492. With F5H the “apparent fitness score (log10)” value was -0.0663. With F5E the “apparent fitness score (log10)” value was -0.544. In the case of V76F, the “apparent fitness score (log10)” value is reported as -0.308. With V76N the “apparent fitness score (log10)” value was -1.41. In the case of T20M, the “apparent fitness score (log10)” value is reported as 0.931. In the case of R57E, the “apparent fitness score (log10)” value is reported as -0.32. With R57G the “apparent fitness score (log10)” value was -1.46. In the case of R57A, the “apparent fitness score (log10)” value is reported as < -4. In the case of R57C, the “apparent fitness score (log10)” value is reported as -0.192. With N56W the “apparent fitness score (log10)” value was -1.01. In the case of L104V, the “apparent fitness score (log10)” value is reported as 0.749. With L104R the “apparent fitness score (log10)” value was 0.693. With L104F the “apparent fitness score (log10)” value was -0.422. With N126L the “apparent fitness score (log10)” value was -1.08. With N126C the “apparent fitness score (log10)” value was < -4. In the case of N126Y, the “apparent fitness score (log10)” value is reported as < -4. For N126R, the “apparent fitness score (log10)” value was -0.929. In the case of G116T, the “apparent fitness score (log10)” value is reported as -0.501. In the case of G116E, the “apparent fitness score (log10)” value is reported as < -4. In the case of G116P, the “apparent fitness score (log10)” value is reported as -0.139. In the case of G116K, the “apparent fitness score (log10)” value is reported as -2. For G116I, the “apparent fitness score (log10)” value was -1.07. For G116Q, the “apparent fitness score (log10)” value was < -4. In the case of L112I, the “apparent fitness score (log10)” value is reported as 1.1. With L112A the “apparent fitness score (log10)” value was -0.901. In the case of L112T, the “apparent fitness score (log10)” value is reported as -0.0785. With L112M the “apparent fitness score (log10)” value was 0.807. For L112E, the “apparent fitness score (log10)” value was < -4. In the case of D115Y, the “apparent fitness score (log10)” value is reported as 0.0219. In the case of D115W, the “apparent fitness score (log10)” value is reported as 0.443. For D115G, the “apparent fitness score (log10)” value was -0.0736. In the case of N88C, the “apparent fitness score (log10)” value is reported as 0.803. In the case of N88T, the “apparent fitness score (log10)” value is reported as 0.355. With N88D the “apparent fitness score (log10)” value was 0.291. With S127L the “apparent fitness score (log10)” value was -0.359. In the case of S127P, the “apparent fitness score (log10)” value is reported as < -4. For S127W, the “apparent fitness score (log10)” value was < -4. For S127F, the “apparent fitness score (log10)” value was < -4. For L91P, the “apparent fitness score (log10)” value was -1.11. For L91C, the “apparent fitness score (log10)” value was -0.572. For L91Q, the “apparent fitness score (log10)” value was -1.2. For L91R, the “apparent fitness score (log10)” value was -1.93. In the case of G15T, the “apparent fitness score (log10)” value is reported as < -4. In the case of G15H, the “apparent fitness score (log10)” value is reported as < -4. In the case of G15C, the “apparent fitness score (log10)” value is reported as < -4. For G15K, the “apparent fitness score (log10)” value was -1.31.
